Measurements from the antibiotic and cytotoxicity screens of Wong et al. (2023).
The list shows a part of the results.

Assays:
HSkMC = human skeletal muscle cells; test: cytotoxicity call (relative viability < 0.9); details: 10 µM
HepG2 = test: cytotoxicity call (relative viability < 0.9); details: 10 µM
S. aureus RN4220 = test: growth inhibition call (relative growth <= 0.2); details: 50 µM

SMILES: C[C@H](CO)N1C[C@H](C)[C@@H](CN(C)C(=O)Nc2ccccc2)Oc2cc(Br)ccc2S1(=O)=O
- cytotoxicity call (HSkMC): inactive
- cytotoxicity call (HepG2): inactive
- growth inhibition call (S. aureus RN4220): inactive

SMILES: C[C@@H]1CCCCO[C@H](CN(C)C(=O)c2ccncc2)[C@H](C)CN([C@H](C)CO)C(=O)c2cc(NS(=O)(=O)c3ccc(Cl)cc3)ccc2O1
- cytotoxicity call (HSkMC): inactive
- cytotoxicity call (HepG2): inactive
- growth inhibition call (S. aureus RN4220): inactive

SMILES: C[C@@H]1CN([C@H](C)CO)C(=O)c2cc(NC(=O)Nc3cccc4ccccc34)ccc2O[C@@H]1CN(C)Cc1ccccc1
- cytotoxicity call (HSkMC): inactive
- cytotoxicity call (HepG2): active
- growth inhibition call (S. aureus RN4220): inactive

SMILES: C[C@@H]1CN([C@H](C)CO)C(=O)c2cc(-c3cccc(C(=O)N(C)C)c3)cnc2O[C@H]1CN(C)S(=O)(=O)c1cccc(F)c1
- cytotoxicity call (HSkMC): inactive
- cytotoxicity call (HepG2): inactive
- growth inhibition call (S. aureus RN4220): inactive

SMILES: C[C@H](CO)N1C[C@H](C)[C@@H](CN(C)S(=O)(=O)c2ccccc2)OCCCC[C@H](C)Oc2ccc(NC(=O)CCC(F)(F)F)cc2C1=O
- cytotoxicity call (HSkMC): inactive
- cytotoxicity call (HepG2): inactive
- growth inhibition call (S. aureus RN4220): inactive

SMILES: COc1cc2c(cc1OC)CN(C(=O)[C@H]1[C@@H]3C(=O)O[C@@H](c4ccccc4)[C@@H](c4ccccc4)N3[C@@H](c3ccc(O)cc3)[C@]13C(=O)Nc1ccc(C#CC4=CCCCC4)cc13)CC2
- cytotoxicity call (HSkMC): inactive
- cytotoxicity call (HepG2): inactive
- growth inhibition call (S. aureus RN4220): inactive

SMILES: O=C1CCSc2ccc(F)cc21
- cytotoxicity call (HSkMC): inactive
- cytotoxicity call (HepG2): inactive
- growth inhibition call (S. aureus RN4220): inactive

SMILES: C[C@@H]1CN([C@H](C)CO)C(=O)c2cccc(NC(=O)C3CCOCC3)c2O[C@H]1CN(C)Cc1ccncc1
- cytotoxicity call (HSkMC): inactive
- cytotoxicity call (HepG2): inactive
- growth inhibition call (S. aureus RN4220): inactive

SMILES: CN1CCN(C(=O)C[C@@H]2CC[C@H]3[C@H](COc4ccc(NC(=O)c5ccc(F)c(F)c5)cc4C(=O)N3C)O2)CC1
- cytotoxicity call (HSkMC): inactive
- cytotoxicity call (HepG2): inactive
- growth inhibition call (S. aureus RN4220): inactive

SMILES: Cc1ccc(S(=O)(=O)Nc2ccc3c(c2)CC(=O)N([C@H](C)CO)C[C@@H](C)[C@@H](CN(C)C(=O)NC(C)C)O3)cc1
- cytotoxicity call (HSkMC): inactive
- cytotoxicity call (HepG2): inactive
- growth inhibition call (S. aureus RN4220): inactive

SMILES: C[C@@H]1CN([C@@H](C)CO)C(=O)c2cccc(NC(=O)C3CCOCC3)c2O[C@H]1CN(C)C(=O)NC1CCCCC1
- cytotoxicity call (HSkMC): inactive
- cytotoxicity call (HepG2): inactive
- growth inhibition call (S. aureus RN4220): inactive

SMILES: COc1ccc(S(=O)(=O)Nc2ccc3c(c2)C(=O)N([C@H](C)CO)C[C@@H](C)[C@H](CN(C)S(=O)(=O)c2cn(C)cn2)OCCCC[C@@H](C)O3)cc1
- cytotoxicity call (HSkMC): inactive
- cytotoxicity call (HepG2): inactive
- growth inhibition call (S. aureus RN4220): inactive

SMILES: C=CC[C@H](CC(=O)N(CCO)Cc1ccccc1)C(=O)NCCOC(=O)[C@@H](CC=C)CC(=O)OC(C)(C)C
- cytotoxicity call (HSkMC): inactive
- cytotoxicity call (HepG2): inactive
- growth inhibition call (S. aureus RN4220): inactive

SMILES: C[C@@H]1CN([C@H](C)CO)C(=O)c2cc(NC(=O)Nc3ccc(C(F)(F)F)cc3)ccc2O[C@@H]1CN(C)Cc1ccc(-c2ccccc2)cc1
- cytotoxicity call (HSkMC): active
- cytotoxicity call (HepG2): active
- growth inhibition call (S. aureus RN4220): inactive

SMILES: C[C@@H]1CN([C@@H](C)CO)C(=O)c2cc(NC(=O)C3CC3)ccc2O[C@@H]1CN(C)Cc1ccc2c(c1)OCO2
- cytotoxicity call (HSkMC): inactive
- cytotoxicity call (HepG2): inactive
- growth inhibition call (S. aureus RN4220): inactive

SMILES: C[C@H]1CN([C@@H](C)CO)C(=O)c2cccc(NC(=O)Nc3ccc(C(F)(F)F)cc3)c2O[C@H]1CN(C)CC1CCCCC1
- cytotoxicity call (HSkMC): inactive
- cytotoxicity call (HepG2): active
- growth inhibition call (S. aureus RN4220): inactive

SMILES: C[C@@H]1CCCCO[C@H](CN(C)Cc2ccccc2)[C@H](C)CN([C@H](C)CO)C(=O)c2cc(NS(=O)(=O)c3ccc(Cl)cc3)ccc2O1
- cytotoxicity call (HSkMC): inactive
- cytotoxicity call (HepG2): active
- growth inhibition call (S. aureus RN4220): inactive

SMILES: Cc1cccc(S(=O)(=O)N2C[C@H](O)COC[C@H]3O[C@@H](CC(=O)N4CCN(C)CC4)CC[C@@H]32)c1
- cytotoxicity call (HSkMC): inactive
- cytotoxicity call (HepG2): inactive
- growth inhibition call (S. aureus RN4220): inactive

SMILES: C[C@@H]1CN([C@H](C)CO)C(=O)c2cc(NS(=O)(=O)c3cccs3)ccc2O[C@H]1CN(C)C(=O)Nc1cccc2ccccc12
- cytotoxicity call (HSkMC): inactive
- cytotoxicity call (HepG2): inactive
- growth inhibition call (S. aureus RN4220): inactive

SMILES: C[C@@H]1CCCCO[C@@H](CN(C)Cc2ccncc2)[C@H](C)CN([C@H](C)CO)C(=O)c2cc(NC(=O)Nc3ccc4c(c3)OCO4)ccc2O1
- cytotoxicity call (HSkMC): inactive
- cytotoxicity call (HepG2): inactive
- growth inhibition call (S. aureus RN4220): inactive

SMILES: [Fe+3].CC/1=C(CCC(=O)O)/C/2=C/c3[nH]c(c(c3CCC(=O)O)C)/C=C/3\N=C(/C=C/4\N=C(\C=C1/N2)C(=C4C)C=C)C(=C3C)C=C
- cytotoxicity call (HSkMC): inactive
- cytotoxicity call (HepG2): active
- growth inhibition call (S. aureus RN4220): inactive

SMILES: Cc1ccc(S(=O)(=O)Nc2ccc3c(c2)C(=O)N([C@H](C)CO)C[C@H](C)[C@H](CN(C)Cc2ccc(C(F)(F)F)cc2)OCCCC[C@@H](C)O3)cc1
- cytotoxicity call (HSkMC): inactive
- cytotoxicity call (HepG2): active
- growth inhibition call (S. aureus RN4220): inactive

SMILES: C[C@@H]1CN([C@H](C)CO)S(=O)(=O)c2ccc(-c3cccc(F)c3)cc2O[C@@H]1CN(C)S(C)(=O)=O
- cytotoxicity call (HSkMC): inactive
- cytotoxicity call (HepG2): inactive
- growth inhibition call (S. aureus RN4220): inactive

SMILES: COc1ccc(-c2cnc3c(c2)C(=O)N([C@H](C)CO)C[C@H](C)[C@@H](CN(C)S(=O)(=O)c2ccc(OC)cc2)O3)cc1
- cytotoxicity call (HSkMC): inactive
- cytotoxicity call (HepG2): inactive
- growth inhibition call (S. aureus RN4220): inactive

SMILES: C[C@H]1CCCCO[C@@H](CN(C)C(=O)Nc2ccc(C(F)(F)F)cc2)[C@@H](C)CN([C@@H](C)CO)C(=O)c2cc(NS(=O)(=O)c3cn(C)cn3)ccc2O1
- cytotoxicity call (HSkMC): inactive
- cytotoxicity call (HepG2): inactive
- growth inhibition call (S. aureus RN4220): inactive

SMILES: COc1ccc(S(=O)(=O)Nc2ccc3c(c2)C(=O)N([C@@H](C)CO)C[C@H](C)[C@@H](CN(C)Cc2ccc(C(F)(F)F)cc2)OCCCC[C@@H](C)O3)cc1
- cytotoxicity call (HSkMC): inactive
- cytotoxicity call (HepG2): active
- growth inhibition call (S. aureus RN4220): inactive
